# From article PMC4336329 (PLoS ONE, 2015)
# About 14,000 (4.5%) of roughly 310,000 compounds showed an effect of 50% or more. Effects have a minus sign here. The list shows a part of the results.
# Molecular target: human ether-à-go-go-related gene (hERG) potassium channel (human, UniProt Q12809)
# Assay: primary screen, population patch clamp on CHO cells stably expressing hERG
# 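Note: peak tail current of the secondary pulse compared with the same well before compound.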
# human ether-à-go-go-related gene (hERG) potassium channel, sequence (Q12809 whole entry, looked up): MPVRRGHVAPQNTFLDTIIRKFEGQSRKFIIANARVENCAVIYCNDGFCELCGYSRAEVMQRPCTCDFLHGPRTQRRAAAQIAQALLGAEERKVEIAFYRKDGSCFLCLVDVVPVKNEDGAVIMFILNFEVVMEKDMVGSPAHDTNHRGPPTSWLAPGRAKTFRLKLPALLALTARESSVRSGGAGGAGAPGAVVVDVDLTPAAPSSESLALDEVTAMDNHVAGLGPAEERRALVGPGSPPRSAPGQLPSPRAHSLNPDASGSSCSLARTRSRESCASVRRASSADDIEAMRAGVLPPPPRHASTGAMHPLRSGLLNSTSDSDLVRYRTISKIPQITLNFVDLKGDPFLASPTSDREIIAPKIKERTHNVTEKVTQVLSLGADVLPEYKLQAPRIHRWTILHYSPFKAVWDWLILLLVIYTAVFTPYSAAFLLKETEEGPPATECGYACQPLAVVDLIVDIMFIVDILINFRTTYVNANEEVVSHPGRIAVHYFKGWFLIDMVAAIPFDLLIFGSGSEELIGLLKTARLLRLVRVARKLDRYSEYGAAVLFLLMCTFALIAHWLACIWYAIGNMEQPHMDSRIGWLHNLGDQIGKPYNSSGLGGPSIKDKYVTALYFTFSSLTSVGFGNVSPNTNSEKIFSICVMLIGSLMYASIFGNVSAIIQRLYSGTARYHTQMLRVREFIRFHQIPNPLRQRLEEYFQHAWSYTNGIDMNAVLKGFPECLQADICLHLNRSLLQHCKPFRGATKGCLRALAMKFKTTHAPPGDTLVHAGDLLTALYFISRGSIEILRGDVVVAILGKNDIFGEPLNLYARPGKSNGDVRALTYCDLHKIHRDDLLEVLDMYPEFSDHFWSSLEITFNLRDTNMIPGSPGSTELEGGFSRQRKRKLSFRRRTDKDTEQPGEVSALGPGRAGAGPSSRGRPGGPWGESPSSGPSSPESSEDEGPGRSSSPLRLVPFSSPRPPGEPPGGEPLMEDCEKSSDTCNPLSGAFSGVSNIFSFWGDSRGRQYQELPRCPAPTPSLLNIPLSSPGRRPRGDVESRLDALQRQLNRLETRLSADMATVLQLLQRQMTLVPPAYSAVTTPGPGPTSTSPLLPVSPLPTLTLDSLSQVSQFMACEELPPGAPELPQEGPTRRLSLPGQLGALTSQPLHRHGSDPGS
row,SMILES,"hERG current change (%, negative = inhibition) at 10uM [%]"
1,CCOC(=O)c1c(C)n2c3c(cc(C)cc13)CCC2,14.4
2,COCCCNC(=O)c1cn(C)c(=O)c2cc(OC)c(OC)cc12,15.8
3,CCOc1ccc(CCNC(=O)C2=C(C)C(=O)OC23CCC(C)CC3)cc1OCC (stereo not shown),-7.92
4,CC1CCCC(C)N1C(=O)CCN1C(=O)C2C3C=CC(C3)C2C1=O (stereo not shown),17.5
5,CCn1c(CSc2nnc(C)n2-c2ccccc2)nc2cc(S(=O)(=O)N(C)C)ccc21,-7.31
6,CCC(=O)Nc1ccc(S(=O)(=O)Nc2ccccn2)cc1,19.7
7,NC(=O)N/N=C/c1coc2ccc(O)cc2c1=O,3.2
8,CNC(=O)c1cc2c(=O)n3cccc(C)c3nc2n(C(C)C)c1=N,-77.3
9,CCC(=O)NCC(=O)OCC(=O)c1ccccc1,11.4
10,Cc1nc(N2CCN(C(=O)c3ccco3)CC2)c2oc3ccccc3c2n1.Cl,-54.8
11,c1ccc(Oc2cccc(CN3CCOCC3)c2)cc1,-29.4
12,CCN(CC)S(=O)(=O)c1cccc(C(=O)NCCCn2ccnc2)c1,-2.28
13,Cc1cc(C(C)(C)C)c(OC(=O)[C@@H]2OC(c3ccccc3)=C[C@H]2c2ccccc2)c(C(C)(C)C)c1,7.58
14,CCc1cc2c(NCc3ccccc3)nc(C)nc2s1.Cl,-35.8
15,Cc1ccccc1NC(=O)NCCN1CC1,9.42
16,O=C(c1cc2cc(Cl)ccc2[nH]1)N1CCN(Cc2ccc3c(c2)OCO3)CC1,9.05
17,CC1CC(CC(C)C(=O)Nc2nncs2)C(=O)O1 (stereo not shown),-2.64
18,Cn1c(=O)[nH]c(=O)c2c1nc(NC1CCCCC1)n2Cc1ccccc1,-7.05
19,O=S(=O)(NCCCCNS(=O)(=O)c1ccc(F)cc1)c1ccc(F)cc1,-14.1
20,Cc1ccc(CNC(=O)c2cn(C3CCCC3)c(=O)c3c2c2ccccc2n3C)o1,-10.6
21,COC(=O)C1(NC(=O)NC23CC4CC(CC(C4)C2)C3)CCCCC1,16.1
22,COC(=O)C1C(O)CCC2CN3CCc4c([nH]c5ccccc45)C3CC21 (stereo not shown),-21.1
23,COc1cccc(NC(=O)CN(C)C(=O)COc2cc(C)ccc2Cl)c1,-10.5

row,SMILES,"hERG current change (%, negative = inhibition) at 10uM [%]"
1,Cc1ccc(S(=O)(=O)N(C)C/N=C(\N)N[N+](=O)[O-])cc1,23.8
2,COc1ccc(/C=C2/SC(=S)N(CC(=O)O)C2=O)cc1OCc1ccc(Cl)cc1,16.6
3,COc1cc2ccccc2cc1C(=O)N1CCOCC1,-23.5
4,Cn1c(-c2c(N)n(C3CCCC3)c3nc4ccccc4nc23)nc2ccccc21,-1.92
5,Cc1ccc(S(=O)(=O)N2CCN(C(=O)C3CCCO3)CC2)cc1 (stereo not shown),3.91
6,COc1cc(-c2noc(C)c2C#Cc2ccc(N)cc2)cc(OC)c1OC,9.61
7,CCOC(=O)C1=C(C)NC(=O)CC1c1cc2c(cc1Br)OCO2 (stereo not shown),5.83
8,S=c1[nH]nc(COc2ccccc2)n1-c1ccccc1,15
9,COc1ccc(N(C)S(=O)(=O)c2cccc(C(=O)Nc3cc(OC)ccc3OC)c2)cc1,13.5
10,CC1(C)Cc2ccccc2-c2nnc(-c3ccc(O)cc3)n21,23.1
11,O=C(CCS(=O)(=O)c1ccccc1)N1CCN(c2ccc(F)cc2)CC1,-35.9
12,COc1ccc(Nc2oc(COc3ccc(OC)cc3)nc2C#N)cc1,7.69
13,O=C(N/N=C/c1coc2ccccc2c1=O)c1cc(Br)ccc1O,26.9
14,COc1cccc(/C=N/NC(=O)c2ccc([N+](=O)[O-])cc2Cl)c1O,6.52
15,COc1ccc(O)c(C(=O)c2cnc3onc(C)c3c2)c1,2.99
16,Cc1nnc(SCc2cn3ccsc3n2)n(N)c1=O,9.36
17,CC1CC(=O)Nc2ccccc2N1C(=O)Nc1ccccc1 (stereo not shown),25.7
18,Cc1[nH]n(-c2ccccc2)c(=O)c1N=O,16.9
19,O=C(NC1CC2CCCC(C1)N2Cc1ccccc1)C1CCCCC1 (stereo not shown),-25.2
20,Cc1[nH]nc2c1C(c1c[nH]c3ccccc13)C(C#N)=C(N)O2 (stereo not shown),19.7
21,CCCCOc1ncnc2c1[nH]c1ccc(F)cc12,10.2
22,O=C(NCCCn1ccnc1)c1cc(C(=O)C2CCCCC2)c[nH]1,-4.88
23,Cc1nnc(NC(=O)C2CCCN2C(=O)Nc2ccccc2)s1 (stereo not shown),7.32

row,SMILES,"hERG current change (%, negative = inhibition) at 10uM [%]"
1,COc1ccc(NC(=O)c2cc(C(=O)Nc3ccc(OC)cc3OC)cc([N+](=O)[O-])c2)c(OC)c1,18.1
2,CN1C(=O)C(=Cc2ccc(OCCN(C)c3ccccn3)cc2)C(=O)N(C)C1=O,-18.5
3,CCOc1ccc(NC(=O)N2CCCC2C(=O)NCC2CCCO2)cc1 (stereo not shown),18.5
4,COc1ccc(-n2c(SCC(=O)NCc3ccco3)nnc2-c2c[nH]c3ccccc23)cc1,-10.9
5,COc1ccc(NC(=O)CN(C)C(=O)/C=C/c2ccc(OCc3ccccc3)cc2)cc1,12.6
6,O=C1c2ccccc2C(=O)c2c1cccc2N1CCN(CCO)CC1,-69.7
7,CN1CCN(S(=O)(=O)c2cccc(C(=O)N(C)Cc3cccs3)c2)CC1,-7.83
8,COc1ccc(NC(=O)CCS(=O)(=O)c2cccc3nonc23)c(OC)c1,6.33
9,COc1ccc(N2CCN(C(=O)CN(C)S(=O)(=O)c3ccc4c(c3)c(=O)n(C)c(=O)n4C)CC2)cc1,-17.7
10,O=c1[nH]c(=S)[nH]c2scc(-c3ccc(Br)cc3)c12,16.3
11,CCCSc1nnc(CN2CCOCC2)n1C,13.3
12,CCCCNC(=O)CCn1c(=S)[nH]c2cc3c(cc2c1=O)OCO3,-6.45
13,COc1ccccc1C1(CC(=O)N2CCOCC2)CCOC(C(C)C)C1 (stereo not shown),0.834
14,CCOC(=O)C1(Cc2ccccc2Cl)CCN(C(=O)CCn2ccnc2C)CC1,-52.6
15,CCN(CC)S(=O)(=O)c1ccc(-c2nnc(SCC(C)=O)o2)cc1,-8.48
16,O=C(COc1cccc2cccnc12)N1CCc2ccccc2C1,-11.9
17,COc1ccc(-c2cc(C(=O)Nc3cc(Cl)ccc3O)no2)cc1,21
18,CC1(C)CC(=O)C2=C(C1)NC(Nc1nc3ccccc3o1)=NC21CCCC1,-5.69
19,CCC(C)NC(=O)Nc1ccc(F)c(Cl)c1 (stereo not shown),16.9
20,N#Cc1c(SCC(=O)Nc2cccc(F)c2)sc2c(O)cc(=O)[nH]c12,7.53
21,CN1CCN(C(=O)CNc2ccc(C(F)(F)F)cc2[N+](=O)[O-])CC1,-19.5
22,COC(=O)C(C)Sc1snnc1-c1ccccc1 (stereo not shown),3.38
23,CCOC(=O)CN(C(=O)Cn1nnc2ccccc21)C(C(=O)NCCOC)c1ccccc1 (stereo not shown),-3.03

row,SMILES,"hERG current change (%, negative = inhibition) at 10uM [%]"
1,Cc1ccc(S(=O)(=O)N2CCN(C(=O)COC(=O)/C=C/c3ccc(F)cc3)CC2)c(C)c1,13.9
2,Cc1nc2nc(SCC(=O)O)nn2c(C)c1Cc1c(F)cccc1Cl,31.5
3,COc1cc2c(C(=O)Nc3ccccc3F)cn(C)c(=O)c2cc1OC,14.5
4,O=C(Cn1cnc2ccccc21)Nc1ccc(F)c(F)c1,8.41
5,Cc1ccc(C)c(NC(=S)NCCc2ccc(F)cc2)c1,-0.384
6,Cc1ccc(SCc2c(-c3ccccc3)nn(C)c2Cl)cc1,10.5
7,CCC(=O)Nc1ccc(C(=O)OCc2ccccc2Cl)cc1,0.808
8,Cc1cc(C)n(CCC(=O)Nc2ccc3c(c2)OCCO3)n1,17.1
9,O=S(=O)(c1ccc(S(=O)(=O)N2CCC3(CC2)OCCO3)cc1)N1CCCC1,-3.93
10,O=C(/C=C/c1ccc(S(=O)(=O)N2CCOCC2)cc1)NCCCn1ccnc1,35.2
11,O=[N+]([O-])c1ccc(NNS(=O)(=O)c2cc(Cl)ccc2Cl)nc1,-68.8
12,C=CCOc1c(Br)cc(/C=N/O)cc1OCC,-8.46
13,Br.CC(Oc1ccccc1)C(=O)NN1Cc2ccccc2C1=N (stereo not shown),22.1
14,Cc1ccccc1OCCNc1cc(N2CCCCC2)ccc1[N+](=O)[O-],-17.2
15,O=C(CC1C(=O)NCCN1C(=O)Nc1ccccc1)Nc1ccc2c(c1)OCCO2 (stereo not shown),-3.25
16,Cc1c(N=Cc2cc3c(cc2Cl)OCO3)c(=O)n(-c2ccccc2)n1C,0.111
17,CC(C)N(c1nnc(N)s1)C(C)C,-6.08
18,O=C(c1cc(C2CC2)on1)N1CCN(c2ccc(F)cc2)CC1,-43.4
19,O=C(CSC1=NCCS1)N1CCc2ccccc21,4.37
20,CCOC(=O)C(=O)NCC(c1ccco1)S(=O)(=O)c1cccs1 (stereo not shown),-5.13
21,CC(=O)c1cccc(S(=O)(=O)Nc2cc(C(F)(F)F)ccc2N2CCOCC2)c1,1.15
22,Clc1ccc(Cn2cccc2C2=NCCO2)cc1,4.69
